Source: PMC4336329 (PLoS ONE, 2015)
Hit rate of the full screen: of about 310,000 compounds, about 2,200 (0.71%) showed an effect of 50% or more. Effects have a minus sign here. This is one part of the list.

molecular target: human ether-à-go-go-related gene (hERG) potassium channel (human, UniProt Q12809); test: primary screen, population patch clamp on CHO cells stably expressing hERG
Sequence (Q12809 whole entry, looked up): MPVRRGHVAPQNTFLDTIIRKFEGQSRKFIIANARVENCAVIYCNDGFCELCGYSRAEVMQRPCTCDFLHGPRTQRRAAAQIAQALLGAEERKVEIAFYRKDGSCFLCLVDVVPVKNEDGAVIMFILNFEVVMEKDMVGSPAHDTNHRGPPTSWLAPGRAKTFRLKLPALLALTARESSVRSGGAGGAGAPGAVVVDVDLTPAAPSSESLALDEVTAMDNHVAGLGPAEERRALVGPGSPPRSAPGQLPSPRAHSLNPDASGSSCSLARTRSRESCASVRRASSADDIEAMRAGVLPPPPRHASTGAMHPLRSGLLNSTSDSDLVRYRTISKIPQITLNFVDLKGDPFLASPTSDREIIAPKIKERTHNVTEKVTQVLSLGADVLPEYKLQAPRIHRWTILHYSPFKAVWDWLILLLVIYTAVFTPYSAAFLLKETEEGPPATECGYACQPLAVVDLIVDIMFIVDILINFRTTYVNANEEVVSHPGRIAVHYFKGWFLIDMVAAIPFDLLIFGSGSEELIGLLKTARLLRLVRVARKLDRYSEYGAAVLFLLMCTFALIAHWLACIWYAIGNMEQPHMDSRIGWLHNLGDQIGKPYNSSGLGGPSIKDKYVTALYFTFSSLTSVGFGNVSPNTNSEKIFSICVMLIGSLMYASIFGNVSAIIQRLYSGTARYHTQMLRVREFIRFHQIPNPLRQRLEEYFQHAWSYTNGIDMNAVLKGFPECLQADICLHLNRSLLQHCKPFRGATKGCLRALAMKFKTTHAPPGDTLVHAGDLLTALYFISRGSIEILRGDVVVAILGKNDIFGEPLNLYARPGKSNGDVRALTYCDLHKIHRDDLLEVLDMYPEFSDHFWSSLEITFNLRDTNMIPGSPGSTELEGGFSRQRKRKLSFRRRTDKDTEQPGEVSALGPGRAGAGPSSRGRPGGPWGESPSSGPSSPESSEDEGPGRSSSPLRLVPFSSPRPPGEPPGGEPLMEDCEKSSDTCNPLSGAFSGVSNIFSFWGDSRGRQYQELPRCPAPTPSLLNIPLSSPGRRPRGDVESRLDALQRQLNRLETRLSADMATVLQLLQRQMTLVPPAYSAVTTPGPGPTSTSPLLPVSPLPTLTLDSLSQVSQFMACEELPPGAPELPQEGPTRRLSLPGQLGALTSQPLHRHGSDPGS

Compound	hERG current change (%, negative = inhibition) at 1uM [%]
O=C(CSc1nc2[nH]ncc2c(=O)n1-c1ccccc1)NCCc1ccccc1	17.1
Cc1ccccc1Nc1ncnc2c1cnn2Cc1ccccc1	10.5
CN(C)/C=C1\C(=O)Nc2ccccc21	13.9
O=C(OCC(=O)N1CCc2ccccc2C1)c1cccc([N+](=O)[O-])c1	5.85
COc1ccc2cc(C(=O)C3CCCN(Cc4cccc(C)n4)C3)ccc2c1 (stereo not drawn)	11.2
N#Cc1ccc(NC(=O)COC(=O)C2=COCCO2)cc1	4.69
CCOC(=O)CCC(=O)NCc1ccc2[nH]c(C)cc2c1	11.2
COc1ccc(-c2c(C#N)c(N)nc(Sc3ccc(Cl)cc3)c2C#N)cc1	10.9
Cc1ccc(CNC(=O)c2cccc(OCc3c(C)noc3C)c2)cc1	3.43
O=C(COC(=O)CCC(=O)c1ccc(F)cc1)Nc1nnc(-c2ccccc2)o1	-0.682
COC(=O)C(CC(=O)Nc1cc(C)ccc1C)Nc1ccccc1OC (stereo not drawn)	-6.02
COc1cccc(NC(=O)CN(C)C(C)C(=O)Nc2ccc(S(=O)(=O)N3CCOCC3)cc2)c1 (stereo not drawn)	9.99
O=C(c1cccc([N+](=O)[O-])c1)N1CCN(c2ccc(Cl)cc2)CC1	2.13
CC[C@H](C)[C@H](NC(=O)OCc1ccccc1)C(=O)Nc1ccc(NC(C)=O)cc1	13.7
O=C(O)c1ccccc1N/N=C/c1cc(Br)cc(Br)c1O	9.85
O=S(=O)(c1ccc(F)cc1)N1CCC2(CC1)OCCN2S(=O)(=O)c1cccs1	6.15
CCOc1ccc(N/C(N)=N/c2nc(C)cc(C)n2)cc1	4.81
COC(=O)C1=C(c2ccc3ccccc3c2)C[C@@H]2CC[C@H]1N2C(=O)NCc1ccc(F)cc1	16
Cc1ccc2nc(N(CCCN(C)C)C(=O)c3sc4ccccc4c3Cl)sc2c1.Cl	0.599
Clc1cccc(Cl)c1/C=C/c1ccn[nH]1	10.7
CN(C)CCCNS(=O)(=O)c1ccc(N2CCC(c3ccc(Cl)cc3)=N2)cc1	10.8
Cc1ccc(C2(C)NC(=O)N(CC(=O)N3CCN(S(=O)(=O)c4cccs4)CC3)C2=O)cc1 (stereo not drawn)	8.78
CCCOc1ccc(C2/C(=C(/O)c3ccccc3)C(=O)C(=O)N2CCCN(C)C)cc1OC (stereo not drawn)	11.2

Compound	hERG current change (%, negative = inhibition) at 1uM [%]
COc1ccc(N2C(=O)NC(=O)/C(=C\c3ccccc3[N+](=O)[O-])C2=O)cc1	8.9
Cc1cc(Cl)c(S(=O)(=O)N2CCCCCC2)cc1OCC(N)=O	6.08
Cc1nnc(SCCn2c(N3CCCC(C)C3)nc3c2c(=O)n(C)c(=O)n3C)s1 (stereo not drawn)	10.4
O=[N+]([O-])c1ccc(Cc2ccccn2)cc1	7.18
Cc1cccc(N=C2NC(=O)/C(=C\c3cccs3)S2)c1	10.6
Cc1cc(C)c2c3c(cn2n1)c(=O)n(C)c(=O)n3C	6.24
Fc1ccc2[nH]c3c(Cl)ncnc3c2c1	8.57
COc1ccccc1N1CCN(C(=O)Nc2cccc(C)c2)CC1	8.62
O=C(Nc1ccc(C(=O)O)cc1)Nc1cccc2ccccc12	12.4
OCCN1CN=C(Nc2nc3ccccc3s2)NC1	-7.88
CCN1CCN(C(=O)c2ccc3c(c2)N(Cc2ccc(F)cc2)C(=O)c2ccccc2S3=O)CC1 (stereo not drawn)	4.29
Cc1cc2cc(C)c(NCCNC(=O)c3ccccc3F)nc2cc1C	7.19
CCN(CC)S(=O)(=O)c1cccc2cc(C(=O)O)c(O)cc12	5.84
CC1c2[nH]c3ccccc3c2C[C@H]2C(=O)N(CCCO)CC(=O)N12 (stereo partly drawn)	17.6
COc1cccc(C2c3[nH]c4ccccc4c3C[C@H]3C(=O)N(c4ccccc4C(=O)NCCCN4CCOCC4)C(=O)N23)c1 (stereo partly drawn)	8.6
CN(C)S(=O)(=O)c1ccc2c(c1)nc(CCC(=O)Nc1ccc(N3CCOCC3)cc1)n2C	11.4
CCOC(=O)C(=O)Nc1nnc(C2CCCCC2)s1	7.59
O=C(Nc1nc2ccc(Cl)cc2s1)c1cccc(N2C(=O)CCC2=O)c1	7.77
COc1ccc(-c2csc(NC(=O)Cc3cc(OC)c(OC)c(OC)c3)n2)cc1OC	7.25
CC(C)c1nnc(SCC(=O)NCCC2=CCCCC2)n1N	-8.88
Cc1ccc(S(=O)(=O)N2CCCC(c3nc4c(nnn4Cc4ccc5c(c4)OCCO5)c(=O)[nH]3)C2)cc1 (stereo not drawn)	4.8
Cc1cc(C)c(C)c(S(=O)(=O)NC2CCCCC2)c1C	11.4
